The list shows a part of the results.
Test system: PfHDP1 homeodomain (GST-tagged)
Assay: gcPBM binding intensity (ln(normalized median fluorescence intensity)); higher = stronger DNA binding
How it was run: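 The highest Masliner-normalised natural-log median intensity across replicate spots of either probe orientation is reported as binding intensity. GST-tagged P. falciparum DNA-binding domains expressed in E. coli were applied for 1 h to an Agilent 4 × 180k array of primer-extended double-stranded 36-bp intergenic genomic probes plus negative controls, and bound protein was detected with Alexa488 anti-GST antibody and scanned at 488 nm.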

Sequence	gcPBM binding intensity (ln)
TTTTTTTTTTTTGTAACATGCAAACAACAATATGGG [TGCATGCA_site695]	6.62
ATGTAATTGTATACATGTACGCAAACACAAAAGCAT [XGTACX_site6771]	6.88
TATATATACATAAAAACATGCAATATATACACATTA [TGCATGCA_site444]	6.59
TACTTCGATAATAATCGTACATATATATTGTATTTA [XGTACX_site5700]	6.55
CAAAAAATACGATGTTGTACTATGTATTCCTGATGT [XGTACX_site246]	6.06
AACTTTTTTATATGCACACATAAACAAGGATATATA [CACACA_site2874]	10.3
AAAAAAAAAAAAAACACACACACACCCATACACATA [CACACA_site2860]	6.93
TATCAAAATAAATGCACACAAATTGCACATATCTAT [CACACA_site1097]	10.7
ATTTATATGTAGATGTGTACTTAATTGTAATGTGTT [XGTACX_site6422]	6.54
CAAAAACATACCTACACACACAATATGTATAAATAA [CACACA_site7617]	6.58
TTGTTTTGCTAAAAATGTACTCTATATAAAAGCTTT [XGTACX_site4027]	6.37
TATATATATTATATATGTACACATATGTGAGAATGA [XGTACX_site2992]	7.24
AATTAAAATTTTTTTTTTTTTTTTTTTTTTCTATTA [CACACA_negctrl_site1585]	5.48
AAAAATAAAAAAAACACACATACCTTATTTTTGTTC [CACACA_site2634]	7.28
AAATTGATATTATATATATATATATATATATATATA [GTGCAC_negctrl_site482]	9.29
ATTTAAAAAACTTTTAGCAAAAAAAAAAAATAATAA [TGCATGCA_negctrl_site191]	6.31
TATATATAGAAACACACACACAAAAAAAAAAAAAAA [CACACA_site1506]	6.45
TATATATCCTTCTATGCATGCATATGGATAGATTTC [TGCATGCA_site58]	6.24
TGAATTTCAAAACAGTGTACATTAATATATATATAA [XGTACX_site7951]	6.71
ATATTTATGACCGTACGTACCTAACAATACAATCAA [XGTACX_site4511]	6.79
ATAATATATATATGTAGTACGTATATAATTTTAATA [XGTACX_site5228]	6.39
TGTTATATATTATATACATGCACAAAAGCAACACAA [TGCATGCA_site1009]	8.51

Sequence	gcPBM binding intensity (ln)
TTCGACGAGAGCAAGTGTACTCTTGAATAATTTATA [XGTACX_site7613]	6.33
ATTTTATTTTTTGAGTGTACTAGTTCAACAACTCCG [XGTACX_site8600]	6.52
AATATATATAATAATTGTACAATACGTATGTTATAT [XGTACX_site8745]	7.15
TGTATACATAATATTTGTACATATTGTTATATATAT [XGTACX_site740]	6.69
ATATATATATACATACGTACACACAAATATTAAAAT [XGTACX_site4007]	8.64
TCCTATATCACAAATGTGCACAGAAAAAAAAAATAT	11
TTATAAAAAAAAAAAAAAAAGAAAATGAATTCACGA [CACACA_negctrl_site1248]	5.74
ATTATCAAGACATTGCGTACTTAAAAAAAAAAAAAT [XGTACX_site6347]	6.4
CATATATAATAATATTGTACATATATAATAATAATA [XGTACX_site3338]	6.13
TTATTATTCATATATTCACACATTAAAATTTTTCAA [CACACA_site4243]	6.62
ATTATATATACATATACACACATACGTACATACATA [CACACA_site9194]	7.01
ATTTCATACAGACACACACACAAACAAACATATATA [CACACA_site979]	7.15
GTGAAGGTTTATATGTGTACATATATGTATTATATA [XGTACX_site326]	6.59
GACATTTCTTGGGATACATGCATGTCCCAGAACAAA [TGCATGCA_site271]	6.21
TTTAATAAATTGTGTACACAAAACATATAAATTTCG [CACACA_site5644]	7.21
TTTTTTTTTTTTAATGCACACAGTGAACTTTTACTT [CACACA_site3567]	9.66
TTACAAATATTATAAAGTACAAACCAGTAGATTTTG [XGTACX_site2272]	5.96
TCATTCTAAATATAAACACACATAAATATGTACATT [CACACA_site7555]	6.6
TTTTTTTTTTTTAAAAGTACATAGTAGTAATTATAG [XGTACX_site4232]	6.03
TATTTTTTTTTTTTTTTTTTTACCTTTCCACTCAAA [CACACA_negctrl_site1454]	6.03
CATAAAAATGGATACACACACATAATATATATATAT [CACACA_site3619]	8.79
TAATTTTTTTTTTATTGTACTTAATATTTTTAATTT [XGTACX_site5929]	6.3

Sequence	gcPBM binding intensity (ln)
AAAAAAATTAATGTGTGTACTTAGATATAATGTTTA [XGTACX_site8862]	6.43
TATATATATTAAAAACGTACAAAATAAGAATTAATT [XGTACX_site5979]	6.8
GGATATATTTTATGTACACACACATATAAGGGATTA [CACACA_site4181]	6.52
TCTAGGAAAAATTATAGTACACAAAAATATATATAT [XGTACX_site4136]	7.95
ATATATACATATACTATATCTTTTATTTTTATTATT [GTGCAC_negctrl_site127]	6.48
TTATATGCACTTTTTGCACACGTATGAATAACAAAA [CACACA_site1811]	11.5
TATGACACTTTGAAGGGTACATGCAGAAAAAAAAAA [XGTACX_site569]	6.67
AATTCAGCTTTACAACGTACACAATCATATGTCTAT [XGTACX_site8113]	6.55
ATGAAGATTTAAAAATGTACATATGATCTATGTCCT [XGTACX_site8409]	6.2
TAATACATAAATGATTGTACATAAGAATTGAAACAT [XGTACX_site4583]	6.56
TATAAATAAATAAACACACACAAATAAAATAAAAAA [CACACA_site7623]	6.98
TTTTTTTGCCATATTACACACACACCGGTAAACCCC [CACACA_site8475]	7.16
ACATATTAGGGTCATGAACACACAAAAAAAAAAAAA [CACACA_site8218]	6.34
TTTATTTATTTATTCTTATTTTTTTTTTTTTTTACT [CACACA_negctrl_site257]	6.15
ATAAAAGAATTAAATAATCAAAATGATTATTTTATA [CACACA_negctrl_site466]	5.63
CCAAAATTTATAAATTGTACATATTTTTAAATTCTT [XGTACX_site833]	6.29
GATAAATAATAATAAGGTACACATAAAATATTCCTT [XGTACX_site2963]	6.3
ATGTAGACAACATATGAACACACAAAATATTTTTTT [CACACA_site8955]	6.57
TTAACAAAATTTTTAACACACAAAAAAAAAAAAAAA [CACACA_site1828]	6.13
TAAGTAAACTTTCTATGTACATATTTTCAAATATTA [XGTACX_site6260]	6.36
CTTATATATACATATACACACACACCCATATATATA [CACACA_site8705]	7.12
GGTATAATTCATATAACACACATTTCAATGTTAAAA [CACACA_site2172]	6.45

Sequence	gcPBM binding intensity (ln)
TGTATTAATTTGTAATGTACACATATATGTATTATA [XGTACX_site4152]	6.68
TATAAAAATAGGATTTGTACATATAAAAAAGGAAAA [XGTACX_site8678]	6.64
TAATATAAAAAAGGTACTACACGAAGGAATAAAAAT [XGTACX_site6872]	7.43
TATAAATATATGTATGCACACATTTTTTTTGGAAAA [CACACA_site1070]	8.81
CAGAAATAGAGATACACACACACATATATTTATGTA [CACACA_site3968]	6.57
ATGTATGCAAAAATGGTGCATATTAAATGTATAACA [GTGCAC_site9722]	10.5
AAAAAAAAAAGAAACACACACATTTGTCTATAATAT [CACACA_site7063]	6.93
TTTGTTCTTTTAATGTGTACATATACACTTGTAATA [XGTACX_site2635]	6.81
TGACCTTATGTGTTTTGAAGGGGAAAGGAAATGCGC [XGTACX_negctrl_site411]	6.31
TCTTTTGTTTAACCTACATGCAGAATATAAGTCTTC [TGCATGCA_site99]	6.56
ATTCATTATTCACCTTGTACACAAATGATTATCGTA [XGTACX_site455]	6.78
AATAATTTTTTAAACACACACACATATATATATATA [CACACA_site95]	9.08
TGTTTAAAAATAATTTGTACATATATTTTATTTCAT [XGTACX_site1272]	6.38
ATAAAGAAATAAAGTTGTACATTATATATATATATA [XGTACX_site7729]	9.41
AATACATACGGACACACACACACATATATATATATA [CACACA_site5884]	9.34
ATCTAAAAATTTTACGCACACAAGTAAAAAAAAAAA [CACACA_site2485]	7.14
TTATACACTGATAAAAGTACATTTGTATGTTTTTTT [XGTACX_site8959]	6.22
TTTTATAATCATAATAGTACTTTTTCTTTTTCACAT [XGTACX_site5017]	6.45
AGTAAAAAAAATATCTGTACATATTAATATAAATGT [XGTACX_site6234]	6.42
AAATATTATTCTTTTATTTTTAAACATATAATTATA [GTGCAC_negctrl_site136]	6.16
AAAATTCTTATAAGATGTACAATTTGTAACACTATA [XGTACX_site510]	6.53
TTATACTCACGTTACACACACACAATATATATATAT [CACACA_site4137]	8.86

— the supplement of paper PMC11417369
